Results on one compound are retold here after article PMC3916391 (PLoS Pathogens, 2014).

The assay addresses T1, putidacin L1 (Pseudomonas putida, UniProt Q8GEJ9).
T1 construct: gene llpA
The assay is described as follows: biochemical.

A word on the Kd: it is the equilibrium constant for the complex coming apart. Lower therefore signals higher affinity.

`C[C@H]1OC(O)[C@@H](O)[C@@H](O)[C@@H]1O` (stereo partly drawn) [D-rhamnose] gave a Kd of 5 to 10 mM.
